# PubChem BioAssay AID1345082 (National Center for Advancing Translational Sciences (NCATS), 2018)
# Among all 94,000 compounds or so, about 4,000 (4.3%) were called active. Inconclusive results, whose numbers are uncertain, are shown with a selection of clear calls. The call rests on the fitted dose curve; in most records, active means well fitted inhibition curve with a large enough effect; inconclusive means small, poorly fitted or top-dose-only effect; inactive means no such curve, though single readings can be large or run the other way. Where the call is inconclusive, the potency comes from a doubtful curve fit.
# Experiment: Cytotoxic Profiling in NIH 3T3 Cell Line of Diverse Libraries Using Quantitative High-Throughput Screening; further: nearly all actives have a fitted effect of over 55% in size
# Details: NIH 3T3 viability, CellTiter-Glo ATP luminescence, 48-72 h; series mostly up to 96.7 µM
# In short: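 NIH 3T3 cells at 400 cells/well received 23 nL of compound by pintool and were incubated 48 or 72 h at 37 °C. Viability was read as ATP-coupled CellTiter-Glo luminescence.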
# Potency means the concentration at half of the fitted maximal effect; tags describe the fitted curve by direction and shape.
row,SMILES,Potency
1,COc1ccc(NC(=O)CCC2CCCN(C(=O)c3csc(C(C)=O)c3)C2)cc1Cl (stereo not drawn),"inconclusive: 35.5 µM [inhibitor, partial curve, poor fit]"
2,COc1ccc(-c2nnc3ccc(N4CCN(c5ccccn5)CC4)nn23)nc1,"inconclusive: 56.2 µM [inhibitor, partial curve, poor fit]"
3,COc1cccc(CNC(=O)C2CCN(C(=O)c3ccc(-c4ccccc4OC)cc3)CC2)c1,"inconclusive: 39.8 µM [inhibitor, partial curve]"
4,O=C(NC1CCCC1)c1cc(C2CC2)nc2onc(C3CCNCC3)c12,inactive
5,COc1ccccc1C(=O)Nc1ccc2c(c1)CN(Cc1ccccc1F)C(=O)C(C)O2 (stereo not drawn),"inconclusive: 35.5 µM [inhibitor, partial curve]"
6,COC[C@@]12CC[C@@H](N3CCOCC3)C[C@H]1CCN(c1nccc(NC(C)C)n1)C2,"inconclusive: 89.1 µM [inhibitor, single point]"
7,COc1ccccc1CCC(=O)N1CCC[C@H]1c1nc(-c2ccccc2)no1,"inconclusive: 70.8 µM [inhibitor, single point]"
8,O=C(NCc1cccs1)c1ccc(OC2CCN(Cc3ccccn3)CC2)cc1,"inconclusive: 89.1 µM [inhibitor, single point]"
9,COc1ccc(-c2ccc(C(=O)NCc3ccccc3F)c(Cl)c2)nn1,inactive
10,COc1cccc(CN2CCCOCCNC(=O)[C@@H]3CCCC[C@@H]32)c1,inactive
11,CCN(Cc1ccco1)C(=O)[C@@H]1CN(c2ncccn2)C[C@H]1COC,inactive
12,Cn1nccc1OCc1cn2c(=O)n(C)cc(-c3cccc(OC(F)(F)F)c3)c2n1,"inconclusive: 89.1 µM [inhibitor, partial curve]"
13,CCN1c2cc(C(=O)Nc3cc(F)cc(F)c3)ccc2C(=O)N2CCCCCC21 (stereo not drawn),"inconclusive: 14.1 µM [inhibitor, full curve, poor fit]"
14,COc1ccccc1-c1ccc(C(=O)N2CCC(NC(=O)c3ccc(Cl)cc3)CC2)cc1,inactive
15,O=C(NCC1CC1)[C@H]1CN(Cc2ccccc2)C[C@H]1C(=O)O,inactive
16,NC(=O)[C@@H]1CCCN1c1ccc(-c2nc(Cc3ccccc3)no2)cn1,"inconclusive: 31.6 µM [inhibitor, partial curve, poor fit]"
17,CN1CCCN(S(=O)(=O)c2ccccc2F)c2ccccc21,"inconclusive: 28.2 µM [inhibitor, partial curve, poor fit]"
18,Cc1cnc(CCNC(=O)Cc2ccccc2)n1CC1CC1,inactive
19,CC(C)Cc1noc(-c2ccc(N3CCCC(C(C)(C)O)C3)nc2)n1 (stereo not drawn),"inconclusive: 50.1 µM [inhibitor, partial curve, poor fit]"
20,COc1cccc([S+](=O)([O-])N2CCC3(CC2)C(=NC2CCCCC2)NC(=O)N3c2cc(F)cc(F)c2)c1,"inconclusive: 2.51 µM [inhibitor, full curve, poor fit]"
21,O=C(CN1CCCc2nc(-c3ccncc3)ncc2C1=O)NCCCN1CCCC1=O,inactive

row,SMILES,Potency
1,COc1ccc(-c2noc([C@@H]3Cc4nc[nH]c4CN3Cc3ccc(NC(C)=O)cc3)n2)cc1,inactive
2,O=C(CCC1CCCC1)N1CCCC(c2nc(CCOCC3CCOCC3)no2)C1 (stereo not drawn),"inconclusive: 50.1 µM [inhibitor, partial curve, poor fit]"
3,COc1ccccc1-c1cc(C(=O)NCc2cccnc2)c2cnn(C)c2n1,"inconclusive: 44.7 µM [inhibitor, partial curve, poor fit]"
4,COCCN1CCCCCC(O)c2cc(C(=O)N3CCN(c4ccccc4F)CC3)ccc21 (stereo not drawn),"inconclusive: 7.08 µM [inhibitor, full curve, poor fit]"
5,O=C(NC1CCCN(c2ccc3nnc(C4CC4)n3n2)C1)c1ccc(Cl)nc1 (stereo not drawn),"inconclusive: 56.2 µM [inhibitor, partial curve, poor fit]"
6,Cc1ccccc1-n1ncc(C(C)NC(=O)c2cn[nH]c2-n2cnnn2)c1C (stereo not drawn),inactive
7,CCc1ccccc1S(=O)(=O)N1CCCC(Cn2c(C3CC3)nc3cccnc32)C1 (stereo not drawn),"inconclusive: 44.7 µM [inhibitor, partial curve, poor fit]"
8,O=C1NC(=NC2CCCC2)C2(CCN(Cc3ccncc3)C2)N1c1cccnc1 (stereo not drawn),"inconclusive: 50.1 µM [inhibitor, partial curve, poor fit]"
9,CCNC(=O)NCCc1ncc(C)n1Cc1ccc(F)cc1,inactive
10,COc1ccc(-c2cc(C[C@@H]3CC[C@H](O)[C@@H](CNCc4ccccc4OC)O3)no2)cc1,active: 56.2 µM
11,CCN1C[C@H]2COc3ccccc3[C@H]2N(C(=O)c2ccc(F)cc2)CCC1=O,"inconclusive: 79.4 µM [inhibitor, partial curve, poor fit]"
12,c1ccc(CCc2noc(-c3ccc(N4CCCOCC4)nc3)n2)cc1,"inconclusive: 39.8 µM [inhibitor, partial curve, poor fit]"
13,CCCCCNC(=O)c1cc(-c2ccccc2OC)nc2c1cnn2C,"inconclusive: 10 µM [inhibitor, full curve, poor fit]"
14,Cc1nn(-c2ccccc2)c2c1C(C)N(C1CCN(C(=O)C3CCCC3)C1)C2=O (stereo not drawn),"inconclusive: 50.1 µM [inhibitor, partial curve, poor fit]"
15,CN1CCC2(CC1)CN(C(=O)Cc1cccs1)Cc1ccccc1O2,"inconclusive: 50.1 µM [inhibitor, partial curve, poor fit]"
16,COc1cccc(Nc2ncc3c(n2)C(C)(C(=O)NCC2CC2)CC3)c1 (stereo not drawn),"inconclusive: 22.4 µM [inhibitor, partial curve, poor fit]"
17,CCN1c2cc(C(=O)Nc3ccc4c(c3)CCC4)ccc2C(=O)N2CCCCC21 (stereo not drawn),active: 12.6 µM
18,CC(C)CNC(=O)Cc1ccc(N(Cc2cccc(F)c2)C(=O)c2ccco2)cc1,"inconclusive: 50.1 µM [inhibitor, partial curve, poor fit]"
19,O=C(NCC1CCCN(Cc2ncccn2)C1)c1ccc(-c2ccccc2)cc1 (stereo not drawn),inactive
20,COc1cc(F)cc(-c2ncc3c(n2)OCCN(Cc2ccc(F)cc2F)C3=O)c1,"inconclusive: 25.1 µM [inhibitor, full curve]"
21,COc1ccccc1-c1ccc(CN2CCC(N[S+](C)(=O)[O-])C2)cc1 (stereo not drawn),"inconclusive: 39.8 µM [inhibitor, partial curve, poor fit]"

row,SMILES,Potency
1,CC(C)Oc1ccc(CN2CCc3n[nH]c(=O)n3CC2)cc1,inactive
2,O=C(c1ccoc1)N1CCCN(c2cc(-c3ccc(Cl)cc3)[nH]n2)CC1,"inconclusive: 44.7 µM [inhibitor, partial curve, poor fit]"
3,CC(C)c1nc2c(c(-c3ccc(O)cc3)n1)CN(Cc1ccc(F)cc1)CC2,"inconclusive: 70.8 µM [inhibitor, single point]"
4,COc1ccc(Cc2ncc3c(n2)CN(C(=O)c2ccc(F)c(C)c2)C3)cc1,"inconclusive: 56.2 µM [inhibitor, partial curve, poor fit]"
5,CN(c1ccccc1)c1cc(=O)c2ccnc(Nc3cccc([S+](C)(=O)[O-])c3)c2o1,active: 8.91 µM
6,O=C(Cn1ccn2nc(-c3ccccc3)c(CO)c2c1=O)Nc1ccc(F)c(F)c1,"inconclusive: 50.1 µM [inhibitor, partial curve, poor fit]"
7,COc1ccc(-c2nnc([C@H]3CCN(Cc4ccccc4Cl)C3)o2)cc1,"inconclusive: 126 µM [inhibitor, partial curve, poor fit]"
8,CC(C)CN1C(=O)CO[C@H](c2ccc(NS(=O)(=O)c3cccc(F)c3)cc2)[C@H]1CO,"inconclusive: 50.1 µM [inhibitor, partial curve, poor fit]"
9,O=C(Nc1ccc(Cl)cc1Cl)c1cccn2cncc12,"inconclusive: 63.1 µM [inhibitor, partial curve, poor fit]"
10,Cn1nccc1C(=O)N1CCC2(CC1)OC(=O)N(CCOc1ccccc1)C2(C)c1cccnc1 (stereo not drawn),"inconclusive: 5.62 µM [inhibitor, full curve, poor fit]"
11,O=C1CCN(CC(O)COc2ccccc2)c2ccc(F)cc2CN1C1CCCC1 (stereo not drawn),"inconclusive: 50.1 µM [inhibitor, partial curve, poor fit]"
12,CNC(=O)CCn1ncc2cc(OCc3ccccc3-c3ccc(F)cc3F)ccc21,"inconclusive: 79.4 µM [inhibitor, partial curve, poor fit]"
13,COc1ccccc1-c1ccc(C(=O)N2CCC(C(=O)NCCSC)CC2)cc1,"inconclusive: 50.1 µM [inhibitor, partial curve, poor fit]"
14,COc1cc(F)ccc1-c1cc(C(=O)NCc2cnn(C)c2)c2c(c1)N(C)CCO2,"inconclusive: 100 µM [inhibitor, partial curve, poor fit]"
15,CC(C)N1C[C@H](C(=O)NCCc2ccccc2)[C@H](C(=O)O)C1,inactive
16,CNC(=O)CNC(=O)c1cccc(-c2ccc(C(F)(F)F)cc2)c1,"inconclusive: 70.8 µM [inhibitor, partial curve, poor fit]"
17,CC(=O)N1CCC(C(=O)N2CCC(c3nc4ncccc4[nH]3)CC2)CC1,inactive
18,CCC(=O)N1Cc2ccccc2CC2(CCCCN2CC)C1 (stereo not drawn),"inconclusive: 112 µM [inhibitor, single point]"
19,Cc1nc(N2CCC(N[C@H]3Cc4ccccc4[C@@H]3N)CC2)c2ccsc2n1,inactive
20,O=C(NC1CCN(c2cnn(Cc3ccccc3)c(=O)c2)CC1)C1CCOC1 (stereo not drawn),inactive
21,Cc1cccc(NC(=O)c2ccc3c(c2)N(C)C2CCCN2C3=O)c1C (stereo not drawn),inactive
